Test results published in the supplement of paper PMC10126150.
Sequences with one replicate were seen in a single cluster, so their values are uncertain.

System: ATP
Assay: switch fluorescence ratio, 500 uM ATP over buffer (Cy3 cluster intensity, sum of 5 cycles each) (fold (ratio)); higher = stronger signal-on switching upon ATP binding; sequences stand for … in TCGTCGGCAGCGTCAGATGTGTATAAGAGACAGTTTTTTTTTTTTTTTTTTTTTTTTT…TC
Settings: aptamer strand: ATP DNA aptamer (quencher-CACCTGGGGGAGTATTGCGGAGGAAGG + anchor), 100 nM annealed; ATP concentration: 500 uM; one replicate
Outline: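 Clusters with intensities outside 100-1000 RFU were excluded. The remaining Cy3-labelled switching-strand clusters on a modified Illumina MiSeq flow-cell had been annealed to 100 nM quencher-labelled ATP aptamer and imaged in selection buffer, then after 15 min with 500 uM ATP at 22 °C, for five cycles separated by NaOH stripping and re-annealing. The fluorescence ratio, averaged per switch-domain sequence, is each cluster's summed target-cycle Cy3 intensity over its summed buffer-cycle Cy3 intensity.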
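Also: ATP exposure 15 min at 22 °C before imaging.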

Q: CTGCAGTGGT was tested. Which switch fluorescence ratio did it give?
A: 1.16

Q: Which switch fluorescence ratio does the source give for TTCGTGCGTG here?
A: 0.979

Q: How did the switch fluorescence ratio turn out when AAACTAGAAC was run?
A: 1

Q: How did the switch fluorescence ratio turn out when AGCGACGGTG was run?
A: 1

Q: Which switch fluorescence ratio does the source give for ACCAGGTTCA here?
A: 1.05

Q: With TTTACTTTG as the sequence, how does the switch fluorescence ratio read?
A: 1.05

Q: How did the switch fluorescence ratio turn out when GTCGTTGCGG was run?
A: 0.973

Q: GCTCGAAACG was tested. Which switch fluorescence ratio did it give?
A: 0.961

Q: How did the switch fluorescence ratio turn out when TTGAACTAAG was run?
A: 1.04

Q: ACACTGGTTT was tested. Which switch fluorescence ratio did it give?
A: 0.969

Q: With TATTACTATA as the sequence, how does the switch fluorescence ratio read?
A: 0.989

Q: For TTCCGGGGC, which switch fluorescence ratio is on record?
A: 1.07

Q: Which switch fluorescence ratio does the source give for ATTTTCCCAG here?
A: 1.13

Q: For TATGACGGGT, which switch fluorescence ratio is on record?
A: 1.08

Q: How did the switch fluorescence ratio turn out when CGTTCTACAT was run?
A: 0.998

Q: For TGATGGTGCT, which switch fluorescence ratio is on record?
A: 0.963

Q: For CTGAAGGAAA, which switch fluorescence ratio is on record?
A: 1.02

Q: Which switch fluorescence ratio does the source give for TGAGTATCGT here?
A: 0.959

Q: CTTCTAAAAG was tested. Which switch fluorescence ratio did it give?
A: 0.944

Q: ATTTGAAT was tested. Which switch fluorescence ratio did it give?
A: 0.996

Q: With AGATCACTGG as the sequence, how does the switch fluorescence ratio read?
A: 0.99

Q: For TGATTTCCTG, which switch fluorescence ratio is on record?
A: 0.965

Q: GCGGGCCGTT was tested. Which switch fluorescence ratio did it give?
A: 1.04

Q: Which switch fluorescence ratio does the source give for AAACGTGCTG here?
A: 1.05

Q: How did the switch fluorescence ratio turn out when AGCAGGAAAT was run?
A: 1.02

Q: For AAACAACAAA, which switch fluorescence ratio is on record?
A: 1.06

Q: Which switch fluorescence ratio does the source give for ATAGAATCTG here?
A: 1.01

Q: How did the switch fluorescence ratio turn out when CGTTTCCGTT was run?
A: 1.08

Q: Which switch fluorescence ratio does the source give for TATGGCTG here?
A: 0.997

Q: With TTACCTCCA as the sequence, how does the switch fluorescence ratio read?
A: 1.42

Q: For CTATAATTGG, which switch fluorescence ratio is on record?
A: 0.964

Q: GATACACGTC was tested. Which switch fluorescence ratio did it give?
A: 0.991

Q: For CACCCACTGG, which switch fluorescence ratio is on record?
A: 1.16

Q: Which switch fluorescence ratio does the source give for CGCAATGTGG here?
A: 1.93

Q: Which switch fluorescence ratio does the source give for GAACTCACAT here?
A: 1.11

Q: GCCCGCGAAC was tested. Which switch fluorescence ratio did it give?
A: 6.92

Q: How did the switch fluorescence ratio turn out when GCCAGCTGTA was run?
A: 1.01

Q: How did the switch fluorescence ratio turn out when CAGTAGTTCC was run?
A: 1.08

Q: With AGCGAGTACT as the sequence, how does the switch fluorescence ratio read?
A: 1.2

Q: GCACTCAGAA was tested. Which switch fluorescence ratio did it give?
A: 0.988

Q: How did the switch fluorescence ratio turn out when GAGTCGAGCT was run?
A: 0.998

Q: How did the switch fluorescence ratio turn out when GCCGTGAGCC was run?
A: 1.07

Q: Which switch fluorescence ratio does the source give for GCCAAGGCGG here?
A: 0.998

Q: With CGGTCTAGTG as the sequence, how does the switch fluorescence ratio read?
A: 0.97

Q: For GGTTATACGG, which switch fluorescence ratio is on record?
A: 1.05

Q: TGTGACAAAC was tested. Which switch fluorescence ratio did it give?
A: 1.07

Q: With CCGGGTGGCT as the sequence, how does the switch fluorescence ratio read?
A: 1.14

Q: CTCACCGGCG was tested. Which switch fluorescence ratio did it give?
A: 1.03

Q: For CTGTGGGGTT, which switch fluorescence ratio is on record?
A: 1.03

Q: With GGCCAATGAT as the sequence, how does the switch fluorescence ratio read?
A: 0.985

Q: With GGTTATGGCA as the sequence, how does the switch fluorescence ratio read?
A: 0.987

Q: TTATCGCATA was tested. Which switch fluorescence ratio did it give?
A: 1.22

Q: How did the switch fluorescence ratio turn out when GCAGAACTTT was run?
A: 1.07

Q: With CAGTTCTCAT as the sequence, how does the switch fluorescence ratio read?
A: 1

Q: How did the switch fluorescence ratio turn out when AAGATGCGGT was run?
A: 0.999

Q: How did the switch fluorescence ratio turn out when CGGTTTAAGA was run?
A: 1.05

Q: How did the switch fluorescence ratio turn out when CCCGTAGTAA was run?
A: 1.11

Q: TCGACCCGT was tested. Which switch fluorescence ratio did it give?
A: 1.05

Q: With CGTGTATAA as the sequence, how does the switch fluorescence ratio read?
A: 1.18

Q: With GGACGAGGCT as the sequence, how does the switch fluorescence ratio read?
A: 1.01

Q: How did the switch fluorescence ratio turn out when ATCACGAGGC was run?
A: 1.01

Q: For AGGGAAGATC, which switch fluorescence ratio is on record?
A: 0.934

Q: GGGGTATGAA was tested. Which switch fluorescence ratio did it give?
A: 0.993

Q: With AGCGGCTCAT as the sequence, how does the switch fluorescence ratio read?
A: 1.03

Q: Which switch fluorescence ratio does the source give for GTAAAAAGCT here?
A: 1.04

Q: How did the switch fluorescence ratio turn out when GATCTAGGCG was run?
A: 1.16

Q: Which switch fluorescence ratio does the source give for AATACAAGGA here?
A: 1

Q: With GTTTTGAGAT as the sequence, how does the switch fluorescence ratio read?
A: 1.01

Q: How did the switch fluorescence ratio turn out when CTTGTACAGT was run?
A: 0.971

Q: Which switch fluorescence ratio does the source give for CCGCGGGTGT here?
A: 2.1

Q: ATTCTTCACA was tested. Which switch fluorescence ratio did it give?
A: 1.02

Q: CAAACACCAG was tested. Which switch fluorescence ratio did it give?
A: 1.05

Q: ATGTAGCGCC was tested. Which switch fluorescence ratio did it give?
A: 0.981

Q: AAGGATATTC was tested. Which switch fluorescence ratio did it give?
A: 0.965

Q: TTAAAATCAT was tested. Which switch fluorescence ratio did it give?
A: 0.992

Q: For AGATGCATTG, which switch fluorescence ratio is on record?
A: 0.967

Q: Which switch fluorescence ratio does the source give for TGTTGATGAT here?
A: 0.983

Q: Which switch fluorescence ratio does the source give for GTAAATGCGA here?
A: 1.07

Q: CCTGGGCCCG was tested. Which switch fluorescence ratio did it give?
A: 1.01

Q: For GTGCGGGTCT, which switch fluorescence ratio is on record?
A: 0.943

Q: TCCAAGACAT was tested. Which switch fluorescence ratio did it give?
A: 1.04

Q: Which switch fluorescence ratio does the source give for GATCGAAAGT here?
A: 1

Q: With ATCCAGGCGG as the sequence, how does the switch fluorescence ratio read?
A: 0.999

Q: AGCTTGGGGC was tested. Which switch fluorescence ratio did it give?
A: 0.993

Q: CGGTCTTTTA was tested. Which switch fluorescence ratio did it give?
A: 0.929
